Test results from patent US20260365677A1, “NEW CONTRAST AGENTS FOR USE IN DIAGNOSTIC IMAGING” (Bayer Aktiengesellschaft, priority 2022, published 2026).
At least one compound was matched to its structure with a doubt left.

Key:
[1] = tested on: freshly isolated rat hepatocytes; test: Uptake into freshly isolated rat hepatocytes; type: cell-based; settings: inhibition of test item uptake by Rifampicine (OATP1B1/1B3 inhibitor), 1:1 each 100 μM; 10 min
Description: Triplicates were performed for each test item.

[2] = target: T1, OATP1B1 (Homo sapiens, UniProt Q9Y6L6); test: Uptake into stable transfected OATP1B1 HEK 293 cells; type: cell-based; settings: inhibition of test item uptake by Rifampicine
T1 construct: expressed in transfected cells
T1 sequence (Q9Y6L6 1-691): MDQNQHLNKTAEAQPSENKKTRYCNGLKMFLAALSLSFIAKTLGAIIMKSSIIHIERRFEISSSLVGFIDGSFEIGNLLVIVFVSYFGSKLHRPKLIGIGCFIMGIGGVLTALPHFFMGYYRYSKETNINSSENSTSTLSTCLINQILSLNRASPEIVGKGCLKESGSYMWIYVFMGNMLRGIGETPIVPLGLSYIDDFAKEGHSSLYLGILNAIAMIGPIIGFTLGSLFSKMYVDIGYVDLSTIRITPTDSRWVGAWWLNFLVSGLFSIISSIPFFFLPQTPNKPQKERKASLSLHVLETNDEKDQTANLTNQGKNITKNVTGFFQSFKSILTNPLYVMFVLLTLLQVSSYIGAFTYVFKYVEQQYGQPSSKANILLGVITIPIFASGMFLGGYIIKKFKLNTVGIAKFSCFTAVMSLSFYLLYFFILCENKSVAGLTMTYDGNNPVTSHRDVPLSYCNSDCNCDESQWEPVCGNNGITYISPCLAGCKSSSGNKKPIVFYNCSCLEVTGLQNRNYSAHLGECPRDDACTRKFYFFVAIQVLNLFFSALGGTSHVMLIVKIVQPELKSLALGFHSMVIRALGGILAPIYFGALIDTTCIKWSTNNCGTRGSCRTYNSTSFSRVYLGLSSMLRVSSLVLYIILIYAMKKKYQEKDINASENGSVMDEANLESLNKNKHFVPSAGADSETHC
Description: Human stable transfected OATP1 B1 human embryonic kidney 293 cells (OATP1 B1 HEK 293, SLCO1B1, Entrez Gene ID: 10599) were used (Leonhardt M et al. Drug Metab Dispos. 2010 July; 38(7):1024-8). The following culture medium was used: 500 mL DMEM (Dulbecco's Modified Eagle Medium—high Glucose, D6429), 50 mL FCS (fetal bovine serum, Fa. Sigma, F7524), 5.8 mL G418 (Geneticin, Fa. Gibco 10131-027) and 5 mL Pen-Strep. (Penicillin-Streptomycin, Fa. Gibco, Ref 15140-122). Cryopreserved cells were shortly thawed in water bath and diluted in 10 mL warm culture medium (37 °C). After medium change the cells were grown for 3d in a 25 cm^2 cell culture flask. After 3 to 5d the cells were transferred into 75 cm^2 flasks. For the splitting the cells were incubated with 1.5 mL trypsin (Trypsin-EDTA (1×) 0.05%, Ref 25300-054 100 ml, Fa. Gibco) for 3-5 min in the incubator (37 °C, 5% CO2 and 95% oxygen). After centrifugation and washing with medium the cells were counted (50 μL cell suspension and 50 μL trypan blue (Trypan Blue Solution, 93595-50 ml, Fa. Fluka). Cells were cultured (1×10^5 cells/well) in poly-D-lysine coated 24-well plates (Fa. Corning, Ref: 354414) in 1.5 mL medium per well. After 48 h in the incubator the medium was changed and 1.5 mL/well sodium butyrate containing medium were added (40 mL culture medium plus 400 μL Na-Butyrate, Fa. Sigma Aldrich B5887-5G, 250 mg in 2.27 mL MilliQ water). After 24 h in the incubator the medium was vacuumed off and 1.5 mL transport buffer was added and incubated for 10 min. The transport buffer contains the following ingredients: 500 mL HBSS (Hank's balanced salt solution, Hyclone, SH30268.01), 5 mL HEPES buffer (4-(2-hydroxyethyl)-1-piperazine-ethanesulfonic acid, Gibco 15630-056) and 3.9 mL glucose (Sigma, G8270-100, 90 g/200 mL MilliQ water). All test items were prepared in transport buffer at a final concentration of 100 μM from stock solutions (180 to 500 mM concentration). The OATP1B1 HEK 293 cells were incubated with test solutions (test item in transport buffer 500 μL) for 40 min on a thermoshaker without shaking (PHMP, Fa. Grant Bio). Triplicates were performed for each test item. After incubation the cells were washed with 2 mL of cold PBS (+) buffer (Dulbeccos PBS+, Fa. Gibco). […] As a reference standard Gd-EOB-DTPA (gadoxetate) is used in the same well plate. The OATP1B1 HEK 293 uptake of the test compound is calculated relative to gadoxetate (resulting in the unit % of RC1).

[3] = Complex stability (transmetallation) with Zn2+ in phosphate buffer; type: physicochemical; settings: over 72 hours, 2.5 mM Zn^2+, 26 mM phosphate buffer, 37 °C, pH 7.4; R1n/R10
Description: The used method is described elsewhere (Laurent S et al., Stability of MRI paramagnetic contrast media: a proton relaxometric protocol for transmetallation assessment. Invest Radiol. 2001 February; 36(2):115-22). […] If test compounds are instable under these conditions, transmetallation during this test would lead to the formation of the Zn^2+ complex of the test item, while Gd^3+ is released and precipitated as highly insoluble GdPO4.
After 3d of incubation T1 relaxation time was observed.

Row | Compound | Inhibition Rifampicine [1] [% inhibition] | Inhibition Rifampicine [2] [% inhibition] | Transmetallation stability [3] [%]
1 | COCCOCCOCCOc1ccc(C[C@@H]2CN(CC(=O)[O-])CCN(CC(=O)[O-])CCN(CC(=O)O)CCN2CC(=O)[O-])cc1.[Gd+3] [Example 3, Gadolinium-2,2′,2″-[(2R)-10-(carboxymethyl)-2-(4-{2-[2-(2-methoxyethoxy)ethoxy]ethoxy}benzyl)-1,4,7,10-tetraazacyclododecane-1,4,7-triyl]triacetate] | 83 | 31 | 
2 | CCOCCOc1ccc(C[C@H]2CN(CC(=O)[O-])CCN(CC(=O)[O-])CCN(CC(=O)O)CCN2CC(=O)[O-])cc1.[Gd+3] [Example 4, Gadolinium-2,2′,2″-{(2S)-10-(carboxymethyl)-2-[4-(2-ethoxyethoxy)benzyl]-1,4,7,10-tetraazacyclododecane-1,4,7-triyl}triacetate] | 94 | 29 | 
3 | CCOCCOCCOc1ccc(C[C@H]2CN(CC(=O)[O-])CCN(CC(=O)[O-])CCN(CC(=O)O)CCN2CC(=O)[O-])cc1.[Gd+3] [Example 2, Gadolinium-2,2′,2″-[(2S)-10-(carboxymethyl)-2-{4-[2-(2-ethoxyethoxy)ethoxy]benzyl}-1,4,7,10-tetraazacyclododecane-1,4,7-triyl]triacetate] | 93 | 0 | 95
4 | COCCOCCOCCOc1ccc(C[C@H]2CN(CC(=O)[O-])CCN(CC(=O)[O-])CCN(CC(=O)O)CCN2CC(=O)[O-])cc1.[Gd+3] [Example 1, Gadolinium-2,2′,2″-[(2S)-10-(carboxymethyl)-2-(4-{2-[2-(2-methoxyethoxy)-ethoxy]ethoxy}benzyl)-1,4,7,10-tetraazacyclododecane-1,4,7-triyl]triacetate] | 90 | 21 | 
5 | O=C([O-])CN(CCN(CC(=O)[O-])CC(=O)[O-])CCN(CC(=O)[O-])C(COCc1ccccc1)C(=O)[O-].[Gd+3].[H+].[H+] (centres unmarked) [RC2, gadobenic acid, reference compound] | 79 |  | 14
